Six compounds from PMC3179504 (PLoS ONE, 2011) can be followed below.

In assay [1] the test system is U373MG cells. Kind of assay: SP-induced membrane blebbing in U373MG cells (phase-contrast / DIC / confocal microscopy). The format is cell-based, human.
For assay [2], the target named is full-length NK1R (Homo sapiens, UniProt P25103). Kind of assay: Real Time Cell Electronic Sensing (RT-CES) impedance, U373MG cells. It counts as cell-based. The note with it: SP 100 nM; for effect of colchicine on SP-induced impedance changes: colchicine 10 µM, 1 hour preincubation; for effect of ML-9 on SP-induced impedance decrease: ML9 50 µM.
For assay [3], the system named is myosin light chain 2 (MLC2) (Ser19). Kind of assay: MLC phosphorylation, Western blot, U373MG cells. The format is cell-based, human. Particulars: 1 hour, SP 100 nM, 1 min. (A western blot detects proteins with antibodies after separation by electrophoresis.)
The mark [4] stands for this setting: U373MG, colchicine 2 µM pretreatment.

full-length NK1R, sequence (P25103 whole entry): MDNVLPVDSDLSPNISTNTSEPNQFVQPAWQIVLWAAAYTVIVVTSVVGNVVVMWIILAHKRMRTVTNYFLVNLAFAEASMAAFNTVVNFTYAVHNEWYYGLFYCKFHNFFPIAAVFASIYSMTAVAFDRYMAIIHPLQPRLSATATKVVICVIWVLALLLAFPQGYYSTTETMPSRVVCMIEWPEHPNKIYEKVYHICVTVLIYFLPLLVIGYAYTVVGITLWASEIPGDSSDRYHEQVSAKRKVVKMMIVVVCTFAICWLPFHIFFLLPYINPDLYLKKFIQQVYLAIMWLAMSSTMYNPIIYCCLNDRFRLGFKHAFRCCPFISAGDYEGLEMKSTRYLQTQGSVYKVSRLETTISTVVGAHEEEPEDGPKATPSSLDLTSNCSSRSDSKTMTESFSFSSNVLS

With `COc1cc2c(c(OC)c1OC)-c1ccc(OC)c(=O)cc1[C@@H](NC(C)=O)CC2` [colchicine], in assay [1] (setting [4]), the “cell morphology after colchicine” value is on record as “flat morphology” and the “effect of colchicine on SP-induced blebbing” value is reported as “SP treatment failed to cause the formation of membrane blebs”. Further, the “effect of colchicine on SP-induced impedance changes” value in assay [2] (three independent experiments) is recorded as “blocked the changes in impedance”. Besides, in assay [2] (three independent experiments, listed as Colchicine), the “effect of colchicine on SP-induced impedance changes” value is reported as “inhibited cell impedance changes”.

Take `Oc1ccc2ccccc2c1SSc1c(O)ccc2ccccc12` [IPA3, 1, 1′-Dithiodi-2-naphthtol]: the “effect of IPA3 on MLC phosphorylation” value in assay [3] (IPA3 20 µM) is recorded as “did not affect MLC phosphorylation”. Besides, the “effect of IPA3 on SP-induced impedance change (in words)” value in assay [2] (IPA3 20 µM, 60 min preincubation, * p<0.05) is listed as “significant decrease in the impedance change”. The “SP-induced impedance change in presence of IPA3” value in assay [2] (IPA3 20 µM, 60 min preincubation, mean ± SEM of three independent experiments) amounted to 0.07±0.03.

Regarding C3 transferase, in assay [1], the “effect of C3 transferase on SP-induced blebbing” value is recorded as “completely blocked membrane blebbing”.

With `C[C@@H](N)[C@H]1CC[C@H](C(=O)Nc2ccncc2)CC1` [Y27632], in assay [3] (Y27632 10 µM), the “effect of Y27632 on MLC phosphorylation” value is given as “decrease in MLC phosphorylation”. In addition, in assay [1] (U373MG, ROCK inhibitor Y27632, SP 100 nM), the “effect of Y27632 on SP-induced blebbing” value is on record as “prevented SP-induced blebbing”. Besides, in assay [2] (Y27632 10 µM, 60 min preincubation), the “direction of impedance change after SP in presence of Y27632” value is “cell impedance increased after treatment with SP”. Further, in assay [2] (Y27632 10 µM, 60 min preincubation, three independent experiments), the “effect of Y27632 on SP-induced impedance decrease” value is on record as “abolished”.

Regarding `COc1ccc2c(c1)CC[C@@H]1[C@@H]2CC[C@]2(C)[C@@H](NCCCCCCN3C(=O)C=CC3=O)CC[C@@H]12` [U73122], in assay [2] (U73122 10 µM, 60 min preincubation, three independent experiments), the “effect of U73122 on SP-induced impedance changes” value is on record as “no effect on the changes in impedance”.

`O=S(=O)(c1cccc2c(Cl)cccc12)N1CCCNCC1` [ML-9]: the “effect of ML9 on MLC phosphorylation” value in assay [3] (ML9 10 µM) is “decrease in MLC phosphorylation”. Also, the “effect of ML-9 on SP-induced bleb formation” value in assay [1] (U373MG, MLCK inhibitor ML-9, SP 100 nM) is on record as “completely blocked bleb formation”. Also, the “effect of ML-9 on SP-induced impedance decrease” value in assay [2] (60 min preincubation, three independent experiments) is listed as “completely blocked”; in assay [2] (60 min preincubation, three independent experiments, listed as ML9), “greatly inhibited”.
